Data taken from the BET-seq Pho4 binding data (Le et al. 2018).
The list shows a part of the results. These are noisy estimates, calculated here from bound and input reads.

What follows are sequences tested against T1, Pho4 (S. cerevisiae) (UniProt P07270) (assay: relative binding free energy (BET-seq); higher = weaker binding). Conditions: reference: library average.
T1 sequence: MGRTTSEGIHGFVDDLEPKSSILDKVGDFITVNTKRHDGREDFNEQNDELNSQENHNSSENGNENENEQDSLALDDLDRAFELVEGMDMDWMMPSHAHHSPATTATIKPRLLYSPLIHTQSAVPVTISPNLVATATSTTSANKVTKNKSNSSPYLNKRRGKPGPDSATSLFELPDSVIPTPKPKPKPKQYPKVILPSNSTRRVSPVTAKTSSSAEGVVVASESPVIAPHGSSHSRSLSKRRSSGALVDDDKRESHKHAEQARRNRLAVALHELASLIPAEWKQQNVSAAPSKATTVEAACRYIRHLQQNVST

Row | Sequence | relative binding free energy [kJ/mol]
1 | CATAGCACGTGGATTG | 0.586
2 | TAGTTCACGTGAGGAA | 1.13
3 | GTTCTCACGTGGGTGG | 0.879
4 | TAACGCACGTGGGGGA | -0.962
5 | TTCAACACGTGTTTGT | -0.377
6 | TGATTCACGTGTGTGA | 0.837
7 | TGGTGCACGTGTGTGG | 0
8 | AGGTCCACGTGTGGTG | 0.167
9 | TGTGGCACGTGATTTT | 0.544
10 | GATATCACGTGAATGG | 1.38
11 | TGCATCACGTGATGAG | 0.92
12 | TAGGTCACGTGGCGCT | -0.0837
13 | TAGTTCACGTGGGAAA | 0.962
14 | CAATTCACGTGAGGAT | 2.13
15 | ATTCACACGTGGGAGG | -0.586
16 | AAGTGCACGTGGGGCG | -0.711
17 | AGTTGCACGTGTTTCT | -0.0418
18 | GATTGCACGTGACTGG | 0.46
19 | CAGGGCACGTGAGGAG | 0.418
20 | CGTTTCACGTGTATGA | 1.55
21 | GGCGGCACGTGAGGTC | 0.837
22 | TGGGTCACGTGAGATT | 1.38
23 | GGGGACACGTGAGAGG | 0.711

Row | Sequence | relative binding free energy [kJ/mol]
24 | TGTATCACGTGGCCTG | -0.209
25 | GTTCACACGTGTATGT | 1.26
26 | CTTGACACGTGGAGGA | 0.418
27 | GTGCTCACGTGGGTCG | 1.09
28 | GATAGCACGTGAGGAT | 1
29 | TTGGGCACGTGAGAAG | 1.38
30 | AGGGTCACGTGTTACA | 0.46
31 | AGAGACACGTGTGGAT | 0.167
32 | TTTCTCACGTGTTGTT | 1.17
33 | ACTGTCACGTGTGTAA | 0.795
34 | CTGGGCACGTGAGCGG | -0.293
35 | GAGATCACGTGCGGGT | 0.628
36 | GTTGGCACGTGTTGGC | 0.167
37 | GCTATCACGTGAGGGG | 1.09
38 | TGGTTCACGTGGGTCT | 0.92
39 | TGGGTCACGTGCGTTT | 0.0837
40 | AGCGCCACGTGTGGGA | -0.418
41 | GGGTACACGTGAAAGG | 0.962
42 | AGAGTCACGTGTCGTG | 0
43 | GATAACACGTGGTGGG | 0.251
44 | TATTGCACGTGTGACA | 0.335
45 | TAAGTCACGTGATTCT | 1.13
46 | AGGTACACGTGTGTAA | 0

Row | Sequence | relative binding free energy [kJ/mol]
47 | TTTTACACGTGGAGAT | 0.544
48 | AAGAGCACGTGGTTGA | -0.795
49 | TATGGCACGTGGAAAA | 0.293
50 | GGATCCACGTGTGTGG | 0.544
51 | CTGGGCACGTGGAAAG | -0.377
52 | GGGGTCACGTGAGTGC | 0.795
53 | ACGCTCACGTGGGTGG | 0.628
54 | TGAGTCACGTGTTTGG | 0.711
55 | AGAAGCACGTGGGTAT | -0.795
56 | GGGTGCACGTGGTGAG | 0.0418
57 | TTATGCACGTGTGGGA | 0.0418
58 | TATTGCACGTGCTTGT | -0.586
59 | ATTTCCACGTGTGTTG | 0.293
60 | GAGCGCACGTGTGTTG | -0.167
61 | TGCATCACGTGATTTG | 0.0418
62 | TTTATCACGTGGGGCC | 0
63 | CTGATCACGTGTGGAG | 0.711
64 | TATCTCACGTGGGAGA | 1.09
65 | TTAGACACGTGAGAGA | 0.962
66 | TTGCTCACGTGTGTGA | 0.711
67 | AACTTCACGTGTTGTG | 1.05
68 | ATAAGCACGTGGGTCG | -0.502
69 | CGTCGCACGTGGTGTG | -1.34

Row | Sequence | relative binding free energy [kJ/mol]
70 | CTGAGCACGTGTGGGG | -0.293
71 | ATTACCACGTGATTTG | 0.711
72 | GGCATCACGTGGAAGG | 0.795
73 | ACTTGCACGTGTGGGG | -0.0418
74 | GGTGACACGTGTGAGA | 0.669
75 | TATAACACGTGGATGG | 0.0837
76 | CAATTCACGTGTGTTG | 1
77 | TTATACACGTGGGTTT | -0.46
78 | TGTAACACGTGCGTAG | -0.293
79 | GTACACACGTGGTTGT | -0.418
80 | TTAACCACGTGGGAGT | -0.293
81 | GTAGACACGTGGGTGG | -0.126
82 | TGGGGCACGTGGTAGA | -0.711
83 | TCAATCACGTGGTTTG | 0.251
84 | TAAGCCACGTGGGAGG | -0.837
85 | CGTTGCACGTGGGGAA | 0.0837
86 | GTTATCACGTGTGGAT | 1.05
87 | TCGTACACGTGTAAGT | 0.669
88 | AGTGTCACGTGGTGAT | 0.293
89 | TAGTGCACGTGCTATG | -0.167
90 | GTAGGCACGTGCTAGG | -0.335
91 | ATGGGCACGTGATGAT | -0.251
92 | TGATGCACGTGTGACG | -0.167

Row | Sequence | relative binding free energy [kJ/mol]
93 | AAGATCACGTGATTTT | 1.42
94 | AGAGTCACGTGGGAAA | 0.293
95 | TCATGCACGTGGAGTG | -0.209
96 | AGGTTCACGTGGAACT | 1.72
97 | TTTTTCACGTGATTTG | 1.92
98 | AGGTACACGTGGTTTA | -0.126
99 | CGTTGCACGTGGCCGG | -0.46
100 | ATGTGCACGTGGGGTC | -1.09
101 | TTACTCACGTGTGGCA | 1.34
102 | CAGGACACGTGGTGGA | -0.544
103 | ATGGGCACGTGTTTAG | -0.251
104 | ATTAGCACGTGTTTTC | -0.293
105 | TGACGCACGTGAGGAG | 0.544
106 | TATAGCACGTGAATGT | 0.377
107 | TACGACACGTGGGTGT | -0.377
108 | TATCGCACGTGAGTGG | 0.669
109 | ATAGTCACGTGGATGT | 0.251
110 | TCATTCACGTGGGCTT | 1.05
111 | GGGGGCACGTGTTAAG | -0.251
112 | TGTGACACGTGGTAGT | -0.126
113 | AAAGGCACGTGGTTGA | -0.418
114 | AAGTGCACGTGATTTT | 0.418
115 | AGTTGCACGTGTATGA | -0.0418
